# Laboratory results taken from the supplement of paper PMC11417369.
# ± gives the standard deviation of the averaged measurements. The list shows a part of the results.
# Tested on: PfAP2-LT AP2 domain (GST-tagged)
# Experiment: gcPBM binding intensity (ln(normalized median fluorescence intensity)); higher = stronger DNA binding
# In short: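 Probes on an Agilent 4 × 180k array were primer-extended, double-stranded and 36 bp long, taken from intergenic genomic regions, with negative controls added. GST-tagged P. falciparum DNA-binding domains from E. coli, about 25 μg on average, were applied to the array for 1 h in 1× PBS containing 1% milk, 0.2 mg/ml BSA, 0.5% salmon testes DNA and 0.03% Triton X-100. Binding intensity, obtained after Alexa488 anti-GST antibody detection and a 488 nm scan, is the highest Masliner-normalised natural-log median intensity across replicate spots of either probe orientation.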
row,Sequence,gcPBM binding intensity (ln)
1,ACTAAACTTATATGTACACACATATAACATTAATTT [CACACA_site2258],9.09 ± 0.37
2,TTATTATTTGGTTATAGTACATAATATAATATATAT [XGTACX_site6911],8.57 ± 0.3
3,TATATATATATGTATGCATGTTGTTTTTTATTTAAT [TGCATGCA_site343],9.13 ± 0.38
4,CTATATTTCGTTGGACGTACAAATGTGATAATTAGG [XGTACX_site3232],8.66 ± 0.39
5,CTAATTGTGTATACCTGTACATATATATATATATAT [XGTACX_site416],9.36 ± 0.028
6,AATACAAAAAAAGGTACACACATAATATATTTATTA [CACACA_site2628],9.13 ± 0.45
7,TTAACTTTTTTATATGCACACATAAACAAGGATATA [CACACA_site8932],8.79 ± 0.32
8,TGTTATTCTACATATACACACAAATAACAATTTAAA [CACACA_site1824],8.66 ± 0.36
9,AAAAAAAAAAAGAACACACACAGTGCACATTCGGTG [CACACA_site788],9.15 ± 0.38
10,TTTCCCTCAAATAAAGTGCATTATGATTTTAATTTA,8.44 ± 0.39
11,AAATTATATATGATGTGTACATAAATATATACACAT [XGTACX_site8761],8.88 ± 0.35
12,ATGTATTTATTTTAACGTACAAGATATTATTATTAT [XGTACX_site4609],8.7 ± 0.38
13,AAATTATAATATAATACACACATAAAAAAAAAAAAA [CACACA_site7],8.93 ± 0.47
14,ATATGGCATATTTGTATTATACATACATATGTATCT [TGCATGCA_negctrl_site562],9.21 ± 0.54
15,TATATTTAGAGAGAGACACACAAAGGGACTTACACA [CACACA_site2545],8.96 ± 0.5
16,TTATTATTCAAGAGGAGTACATTATGTGTATAATAT [XGTACX_site4995],8.71 ± 0.36
17,TGTGTATATCGATAAAGTACATTTGAAAAGTGACTT [XGTACX_site6957],8.84 ± 0.32
18,GTAATATGTATCCATACACACATACAGTTTATTTGC [CACACA_site6540],9.21 ± 0.4
19,TCCACTTAACTCAATTGTACAAAAATAAAAATTAAA [XGTACX_site855],8.34 ± 0.51

row,Sequence,gcPBM binding intensity (ln)
1,TTTTATGCGCAATAAGTGCATTTAAAATATATATAT,8.54 ± 0.38
2,ATAATATATATATATATATTATCAAATATATATATA [GTGCAC_negctrl_site346],8.64 ± 0.3
3,ATACGAAGAAATGTTCATTTATTTCGAACATTTAAT [CACACA_negctrl_site1481],8.56 ± 0.41
4,TTTTTCATAAAACACACACACAAAAATAATGTGGAA [CACACA_site3687],9.22 ± 0.36
5,AATATAATATAATATAGTACGTAAAAATATTATACA [XGTACX_site2170],9.01 ± 0.46
6,AAAAAAAACGGACACACACACATTCAATATAAAACA [CACACA_site4189],9.99 ± 0.3
7,GTATTAATATATAATTGTACTTTTTTTTTTTTTTTT [XGTACX_site4369],8.56 ± 0.55
8,ATCACCAAATGGGCTATACAACAATGAGAAATGGTA [CACACA_negctrl_site48],8.88 ± 0.49
9,TTTTTATATTTTACATGTACATAAATATATTATATA [XGTACX_site958],8.75 ± 0.47
10,AATAATGAATTGAAATGTACATATTTTTATTAATAC [XGTACX_site8899],8.64 ± 0.48
11,ATATAAAAATATAATACACACATAAAATATATTATA [CACACA_site969],8.98 ± 0.39
12,TATATAAGGAAATATTGTACTTTTATATTTATATTA [XGTACX_site3814],8.4 ± 0.41
13,TTTCTTTTTATATTCACACATAAATATATATATATA [CACACA_site6053],8.71 ± 0.45
14,AAAAAAAAAAAACACACACACACATACCCATACATA [CACACA_site5575],9.98 ± 0.22
15,ATATATTTGTATAATAGTACGTACAGGCAAAATATA [XGTACX_site7396],8.99 ± 0.43
16,TACATTTAAAAAAAAACACACATATATATATATATA [CACACA_site2535],9.75 ± 0.18
17,ATATATAAATAATGTTGTACGTATTTCAAAAGTATG [XGTACX_site3363],8.72 ± 0.42
18,TGTATGCTTACATAATGTACGGAAAAATAAAGGCAT [XGTACX_site6923],8.98 ± 0.44
19,ATAATAATAATAAAAAGTACAAATTATTATATATAT [XGTACX_site5160],8.85 ± 0.45

row,Sequence,gcPBM binding intensity (ln)
1,TGCTCTCTCTTGTTGTGTACATAATACAATATATAT [XGTACX_site7427],9.21 ± 0.37
2,ATAATAAGAACTCAGTGTACTATCCTTTGAATTAAC [XGTACX_site8117],8.69 ± 0.5
3,AACGTCTTTTTTTTTTTTTTTCTTTTTTTTTTTATT [CACACA_negctrl_site303],8.81 ± 0.48
4,TAATTATTTTCGGTACGTACTAATGTATATATAATT [XGTACX_site3895],8.71 ± 0.42
5,TAATAATTTTTTTTTTTTTTTTACGAAAATATGATT [GTGCAC_negctrl_site323],8.19 ± 0.52
6,AATTTTTTTTTTTTGTTGCACTTTTAGAGTTTTAAT [GTGCAC_site9519],8.68 ± 0.46
7,CCTTTAAGCAAAAACACACACACATATTTATTTATA [CACACA_site6294],9.41 ± 0.3
8,TAATAAATAGGACACACACACATATTTATATATCAT [CACACA_site6771],9.76 ± 0.2
9,TATAAAAGTGGACACACACACATATATATATATATA [CACACA_site4673],9.925 ± 0.035
10,ACACATCAAATATAAAAAAAAAATAACTATAAATAA [CACACA_negctrl_site587],8.76 ± 0.53
11,TTGCAAAATTGTTTTATCACAAATATATACTTAATA [CACACA_negctrl_site403],8.38 ± 0.37
12,TAATTCTTGTAAAATGTGCGCAGTAGATATAGTTTT,9.04 ± 0.25
13,AGATATAAGAAAAGCACACACACACTAGAAAAAAAA [CACACA_site5559],9.92 ± 0.33
14,ATAAAATTATATACGTGTACATATATATATTTATGT [XGTACX_site4653],8.9 ± 0.43
15,ATATTTATTCAATCCAGTACATATTATATATTGTAT [XGTACX_site184],8.86 ± 0.41
16,ATAAAATATCAATACCGTACACAAGCAGGTAAAATA [XGTACX_site3719],9.11 ± 0.35
17,CTTTTTTGTAATAACACACACACAAACAGAAAAAAT [CACACA_site2075],9.48 ± 0.23
18,ATTAATATTTAGACTTGTACATATATAATATATGTC [XGTACX_site3766],8.88 ± 0.41
19,TTTCTTTTTTAAATTAAAATTTTTTTTTTTTTCGGT [TGCATGCA_negctrl_site52],8.16 ± 0.58
